Test results taken from PubChem BioAssay AID651820 (National Center for Advancing Translational Sciences (NCATS), 2012).
In all, about 340,000 compounds went through this assay and about 12,000 (3.5%) were called active. Inconclusive results, whose numbers are uncertain, are shown with a selection of clear calls. Calls come from the whole dose curve; as a rule, active = well fitted inhibition curve with a large enough effect; inconclusive = small, poorly fitted or top-dose-only effect, or another doubt; inactive = no such curve, though single readings can be large or run the other way. Potencies of inconclusive entries are left out as doubtful fits.

experiment: qHTS Assay for Inhibitors of Hepatitis C Virus (HCV); settings: Huh7.5.1 HCVcc-Cre (HCVcc is cell-culture hepatitis C virus) infection, luciferase reporter, 44 h; series mostly up to 41.8 µM
In short: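 1,000 cells/well; 4 h culture; + compound; + HCVcc-Cre (~0.5 moi); 44 h; luciferase substrate, RT 15 min; read 15 sec.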
Potency is the fitted concentration of half-maximal effect; tags give direction and shape of the fitted curve.

Row | Compound | Potency
1 | COc1c(O)ccc2c1CN1CCc3cc4c(cc3C1C2)OCO4 (stereo not drawn) | inconclusive [inhibitor, full curve, poor fit]
2 | COc1cc2[nH]c(=S)n(Cc3ccccc3)c(=O)c2cc1OC | inconclusive [inhibitor, single point]
3 | O=C(CN1C(=O)C(=O)N(Cc2ccco2)C1=O)NC1CCCCC1 | inactive
4 | COc1ccc(Cl)cc1C(=O)NC1=NCCS1 | inconclusive [inhibitor, single point]
5 | O=C(c1ccco1)N1CCC(c2nc3c(nnn3Cc3ccccc3Cl)c(=O)[nH]2)CC1 | inactive
6 | C#CCCc1cscc1/C=[N+](\[O-])c1ccc(C(=O)OCC)cc1 | inconclusive [inhibitor, single point]
7 | COc1ccc(OC)c(-c2csc(NC(=O)COC(=O)C3(C)CC3(Cl)Cl)n2)c1 (stereo not drawn) | active: 14.1 µM
8 | COc1ccc(C)cc1NC(=O)C(OC(=O)CNC(=O)c1cccc(F)c1)c1ccccc1 (stereo not drawn) | inconclusive [inhibitor, single point]
9 | O=C(Nc1ccc(Cl)c(Cl)c1)OCc1cnc(Cl)s1 | active: 11.2 µM
10 | CSc1nc(Cc2ccc(Cl)cc2)nc2ccccc12 | inactive
11 | CC(Oc1ccc(Cl)cc1Cl)C(=O)Nc1ccncc1 (stereo not drawn) | inconclusive [inhibitor, single point]
12 | Nc1cc(C(F)(F)F)cc([N+](=O)[O-])c1N | inconclusive [inhibitor, partial curve]
13 | Cc1cc(NC(=O)COc2ccc(Cl)cc2Cl)n(-c2ccccc2)n1 | inconclusive [inhibitor, partial curve]
14 | COc1ccc(/C(C)=N/Nc2nc3ccccc3nc2C)cc1 | active: 12.6 µM
15 | CC(=O)Oc1ccc(C(=O)Nc2cccc(-c3nnc(-c4ccco4)o3)c2)cc1 | inconclusive [inhibitor, full curve, poor fit]
16 | CCOc1cc(NC(=S)NCCCN2CCOCC2)c(OCC)cc1NC(=O)c1ccco1 | inconclusive [inhibitor, single point]
17 | COc1ccc(NC(=O)CN2C(=O)NC3(CCCCCC3)C2=O)cc1Cl | active: 25.1 µM
18 | O=C(NCCCn1ccnc1)Nc1ccc2c(c1)OCO2 | inconclusive [inhibitor, single point]
19 | O=C1/C(=C/c2ccccc2)SC(=S)N1CC(=O)N1CCCCC1c1cccnc1 (stereo not drawn) | inconclusive [inhibitor, partial curve]
20 | COc1ccc(-c2oc3ccc(N4CCOCC4)cc3c2/C=C/c2ccc(OC)c(OC)c2)cc1 | inactive
21 | CCOC(=O)CC1=NN(c2ccccc2)C(=O)C1=c1sc(=C2SC(C)=C(C)N2CC)c(=O)n1CC | inactive
22 | CCOc1ccc(N=c2scc(-c3ccc(OC)cc3)n2CCO)cc1 | inconclusive [inhibitor, single point]
23 | O=C(NCc1ccccc1)c1cc(-c2cccc(O)c2)on1 | inconclusive [inhibitor, single point]
24 | Nc1nonc1-c1nc2ccccc2n1CC(=O)N/N=C/c1ccc(-c2cccc(C(=O)O)c2)o1 | inactive
25 | COc1ccc(C(=O)Nc2ccc(Cl)c(S(=O)(=O)N3CCOCC3)c2)cc1 | active: 8.91 µM

Row | Compound | Potency
26 | O=C(CCSCc1ccccc1Cl)NC1CCCCC1 | inactive
27 | CCCCn1nc(C(=O)Nc2c(C)n(C)n(-c3ccccc3)c2=O)c2ccccc2c1=O | inactive
28 | CCCc1nc2cc3c(cc2[nH]1)n(C)c(=O)n3C | inconclusive [inhibitor, single point]
29 | C=CCOc1ccc(C(=O)Nc2ccc(OCC)cc2)cc1 | inactive
30 | CCc1ccc(-c2cc(C)no2)cc1S(=O)(=O)NCCN1CCC(C)CC1 | inconclusive [inhibitor, partial curve]
31 | COc1ccc(OCCNC(=O)c2cccc(Oc3ccc(C(F)(F)F)cc3[N+](=O)[O-])c2)cc1 | inconclusive [inhibitor, partial curve]
32 | CCN(CC(=O)Nc1cccc(OC)c1)CC(=O)Nc1cccc2ccccc12 | inconclusive [inhibitor, full curve]
33 | Cc1ccc2c(c1)C1CN(C)CCC1N2C(=O)c1cn(-c2ccccc2)nc1-c1ccccc1 (stereo not drawn) | inconclusive [inhibitor, single point]
34 | O=S(=O)(c1ccccc1F)N1CCN(Cc2cc3c(cc2Br)OCCO3)CC1 | inconclusive [inhibitor, single point]
35 | COC(=O)c1cc(Cl)nc2ccccc12 | inactive
36 | COc1ccc(OC)c(NC(=O)c2sc3nc(Cc4ccccc4)cc(C(F)(F)F)c3c2N)c1 | inconclusive [inhibitor, partial curve]
37 | COC(=O)c1cccc(C#CC(NP(=O)(c2ccccc2)c2ccccc2)c2ccccc2)c1 (stereo not drawn) | inconclusive [inhibitor, single point]
38 | CCN(CC)S(=O)(=O)c1ccc(N2CCCC2)c(NC(=O)C2=COCCO2)c1 | inactive
39 | O=C(c1cc2sccc2n1Cc1ccccc1)N1CCN(c2nc3ccccc3s2)CC1 | active: 4.47 µM
40 | O=C(Nc1ccc([N+](=O)[O-])cc1)Nc1nc(-c2ccc(Cl)s2)cs1 | inconclusive [inhibitor, full curve]
41 | COc1ccc(S(=O)(=O)N2CCOCC2)cc1NC(=O)[C@@H]1CCCN1C(=O)c1cccs1 | inconclusive [inhibitor, single point]
42 | Cc1ccccc1OCCC(=O)OCC(=O)c1c(N)n(CC(C)C)c(=O)n(C)c1=O | inactive
43 | OC(COc1ccc2c(c1)CCC2)Cn1cnc2ccccc21 (stereo not drawn) | inconclusive [inhibitor, single point]
44 | C/C=C/c1ccc(OCCCCN2CC(C)CC(C)C2)c(OC)c1 (stereo not drawn) | inconclusive [inhibitor, full curve, poor fit]
45 | COc1ccc(CCN2C(=O)CN=C2Nc2ccc(F)cc2)cc1OC | inactive
46 | Cc1ccc(O)c(/C=N/NC(=O)COc2ccc3c(C)cc(=O)oc3c2)c1 | inconclusive [inhibitor, single point]
47 | CC(=O)CSc1ncnc2sc3c(c12)CCC3 | inconclusive [inhibitor, single point]
48 | O=S(=O)(c1ccc(SCc2ccc(Br)cc2)nc1)N1CCOCC1 | inconclusive [inhibitor, single point]
49 | COC(=O)c1ccc2c(c1)NC1=C(C(=O)CC(C)(C)C1)C(c1ccncc1)N2 (stereo not drawn) | inactive
50 | O=C(Cc1c(F)cccc1Cl)Nc1cccc(S(=O)(=O)NC2=NCCCCC2)c1 | inactive

Row | Compound | Potency
51 | CN(C(=O)c1cccc(NC(=O)Cc2ccc(NC(=O)C3CCN(C(=O)C4CCCCC4)CC3)cc2)c1)C1CCCCC1 | inconclusive [inhibitor, partial curve]
52 | CC1CCCCN1CC(O)COCCC12CC3CC(CC(C3)C1)C2 (stereo not drawn) | inconclusive [inhibitor, single point]
53 | O=C(NNC(=O)c1nc(Cl)ccc1Cl)c1ccc(F)cc1 | inactive
54 | Cc1[nH]c2ccccc2c1C(=O)C(=O)N1CCCc2ccccc21 | inactive
55 | c1ccc(-c2cc(CSc3nc4ccccc4[nH]3)on2)cc1 | active: 3.98 µM
56 | COc1ccc(-c2noc(CCC(=O)N3CCN(c4ccccc4OC)CC3)n2)cc1 | inconclusive [inhibitor, full curve, poor fit]
57 | c1cc(Nc2cccc3nccnc23)c2nccnc2c1 | inactive
58 | Cc1cnc(NC(=O)CCN2C(=O)C3CCCCC3C2=O)s1 (stereo not drawn) | inactive
59 | Cc1c(Cl)c([N+](=O)[O-])nn1CCCC(=O)Nc1cc(Oc2ccccc2)cc([N+](=O)[O-])c1 | inconclusive [inhibitor, partial curve]
60 | COc1ccc(CCN2CN(S(=O)(=O)c3ccc(C)cc3)c3nc4ccccc4nc32)cc1OC | inactive
61 | COc1ccc(NS(=O)(=O)c2ccc(NC(=S)NC(=O)CC(C)C)cc2)cc1 | inconclusive [inhibitor, single point]
62 | CCOc1ccc(OCC(=O)Nc2ccccc2C(F)(F)F)cc1 | inconclusive [inhibitor, single point]
63 | CC1=C(C(=O)OCc2ccc3c(c2)OCO3)C(c2ccccc2)NC(=O)N1 (stereo not drawn) | inconclusive [inhibitor, full curve]
64 | Cc1sc2ncnc(SC(C)C#N)c2c1C (stereo not drawn) | inconclusive [inhibitor, single point]
65 | COc1cc(/C=C2\NC(=S)N(C)C2=O)ccc1OCc1cccc(F)c1 | inconclusive [inhibitor, single point]
66 | CCC(C)(C)N1CC(=O)N(Cc2ccccc2)C(c2ccc(OC)cc2)C1=O (stereo not drawn) | inactive
67 | O=C1NC2=C(C(=O)CCC2)C(c2ccc(OC(F)F)cc2)N1 (stereo not drawn) | inactive
68 | O=C1C=C(c2ccccc2)C(=O)N1Nc1ccccc1 | inconclusive [inhibitor, single point]
69 | c1ccc(-n2nnnc2SCCCSc2nc3ccccc3s2)cc1 | inconclusive [inhibitor, partial curve, poor fit]
70 | Cc1ccc(SCc2nn(C)c(Cl)c2C=O)cc1 | inactive
71 | N#CCCn1cc(C(=O)Nc2ccc(C(=O)O)cc2)c(-c2cccc(Br)c2)n1 | inactive
72 | Nc1ccc(/C=C/c2ccc3ncccc3c2)cc1 | inconclusive [inhibitor, partial curve]
73 | O=C(Nc1ccccc1N1CCCCC1)c1cccc(Cl)c1 | inconclusive [inhibitor, partial curve]
